Results taken from the antibiotic and cytotoxicity screens of Wong et al. (2023).
Some of the results follow.

Experiments:
HSkMC = human skeletal muscle cells; experiment: cytotoxicity call (relative viability < 0.9); settings: 10 µM
HepG2 = experiment: cytotoxicity call (relative viability < 0.9); settings: 10 µM
S. aureus RN4220 = experiment: growth inhibition call (relative growth <= 0.2); settings: 50 µM

| Structure (SMILES) | cytotoxicity call (HSkMC) | cytotoxicity call (HepG2) | growth inhibition call (S. aureus RN4220) |
| --- | --- | --- | --- |
| C[C@@H]1CN([C@@H](C)CO)C(=O)Cc2cc(NC(=O)CCN3CCOCC3)ccc2O[C@@H]1CN(C)S(=O)(=O)c1ccccc1 | inactive | inactive | inactive |
| C[C@H]1CN([C@@H](C)CO)S(=O)(=O)c2ccc(C#CC3(O)CCCC3)cc2O[C@@H]1CN(C)C(=O)c1ccccc1 | inactive | inactive | inactive |
| C[C@H]1CN([C@@H](C)CO)C(=O)c2cc(NC(=O)C3CC3)ccc2O[C@@H]1CN(C)S(=O)(=O)c1ccccc1 | inactive | inactive | inactive |
| O=C(NCCCO)c1cc2ccccc2oc1=O | inactive | inactive | inactive |
| C[C@@H]1CN([C@@H](C)CO)C(=O)c2cc(NC(=O)Nc3ccc4c(c3)OCO4)ccc2O[C@@H](C)CCCCO[C@@H]1CN(C)Cc1ccncc1 | inactive | inactive | inactive |
| CCCc1nc(C)c2c(=O)[nH]c(-c3cc(S(=O)(=O)N4CCN(CC)CC4)ccc3OCC)nn12.Cl | inactive | inactive | inactive |
| C[C@@H]1CCCCO[C@H](CN(C)C(=O)Cc2ccccc2)[C@@H](C)CN([C@@H](C)CO)C(=O)c2cc(NC(=O)Cc3ccccc3)ccc2O1 | inactive | inactive | inactive |
| CN(C)C(=O)c1ccc(-c2cccc(-c3nc(C(=O)NCc4ccccc4)cc4c3[C@H](CCO)N([S@@](=O)C(C)(C)C)C4)c2)cc1 | inactive | inactive | inactive |
| C[C@@H]1CN([C@@H](C)CO)C(=O)c2cc(N(C)C)ccc2O[C@@H](C)CCCCO[C@@H]1CN(C)Cc1ccc(C(=O)Nc2ccccc2N)cc1 | inactive | inactive | inactive |
| C[C@H]1CCCCO[C@H](CN(C)C(=O)Nc2ccc3c(c2)OCO3)[C@@H](C)CN([C@@H](C)CO)C(=O)c2cc(NC(=O)c3ccncc3)ccc2O1 | inactive | inactive | inactive |
| COc1ccc(NC(=O)Nc2ccc3c(c2)C(=O)N([C@H](C)CO)C[C@@H](C)[C@H](CN(C)C(=O)NC2CCCCC2)OCCCC[C@@H](C)O3)cc1 | inactive | inactive | inactive |
| C[C@H]1CN([C@@H](C)CO)S(=O)(=O)c2ccc(C3=CCCC3)cc2O[C@H]1CN(C)C(=O)c1cnccn1 | inactive | inactive | inactive |
| N#Cc1cn(C2CCCCC2)c(=O)[nH]c1=O | inactive | inactive | inactive |
| C[C@H](CO)N1C[C@H](C)[C@H](CN(C)CC2CCCCC2)OCCCC[C@H](C)Oc2ccc(NC(=O)Cc3ccccc3)cc2C1=O | inactive | inactive | inactive |
| Cc1ccc(-c2cc(C(F)(F)F)nn2-c2ccc(S(N)(=O)=O)cc2)cc1 | inactive | active | inactive |
| C[C@@H]1CCCCO[C@H](CN(C)S(=O)(=O)c2cccs2)[C@H](C)CN([C@@H](C)CO)C(=O)c2cc(NC(=O)Nc3ccc(F)cc3)ccc2O1 | inactive | inactive | inactive |
| COCC#Cc1ccc2c(c1)O[C@@H](CN(C)C(=O)C1CCCCC1)[C@H](C)CN([C@H](C)CO)S2(=O)=O | inactive | inactive | inactive |
| C[C@@H]1CN([C@@H](C)CO)C(=O)c2cccc(NC(=O)C3CCOCC3)c2O[C@H]1CN(C)Cc1ccc2c(c1)OCO2 | inactive | inactive | inactive |
| C[C@H](CO)N1C[C@H](C)[C@H](CN(C)Cc2ccc(C(=O)O)cc2)OCCCC[C@H](C)Oc2ccc(NS(=O)(=O)c3cccs3)cc2C1=O | inactive | inactive | inactive |
| CNC(=O)c1ccc(CN)cc1 | inactive | inactive | inactive |
| C[C@@H]1CN([C@@H](C)CO)C(=O)Cc2cc(NC(=O)Cn3cnnn3)ccc2O[C@@H]1CN(C)C(=O)NC1CCCCC1 | inactive | inactive | inactive |
| O=C(NCCO)C1=C[C@H](Oc2ccccc2I)[C@@H](O)[C@H](N(Cc2ccco2)C(=O)Cc2ccccc2)C1 | inactive | inactive | inactive |
| C[C@H](CO)N1C[C@H](C)[C@@H](CN(C)C(=O)Nc2cccc3ccccc23)Oc2ccc(NC(=O)Nc3ccc4c(c3)OCO4)cc2C1=O | inactive | inactive | inactive |
| C[C@H]1CN([C@@H](C)CO)C(=O)Cc2cc(NC(=O)NC3CCCCC3)ccc2O[C@@H]1CN(C)Cc1ccc(C(F)(F)F)cc1 | inactive | inactive | inactive |
| O=C1CN(S(=O)(=O)Cc2ccccc2)C[C@@H]2[C@@H](c3ccc(C#Cc4ccc(F)cc4)cc3)[C@@H](CO)N12 | active | active | inactive |
